Measured values published in PubChem BioAssay AID485344 (National Center for Advancing Translational Sciences (NCATS), 2010).
“And” between values parts separate entries of the source, which are not always exact repeats. Identical values can stand only once. Screen size: about 340,000 compounds; about 6,900 (2%) were called active. Rule as the data show it: active = inhibition above about 30%; inactive = below that, where a call was filed. This is a selection; strong and weak results do not stand in their true shares. The source gives no active or inactive call for entries shown without one.

Molecular target: D(2) dopamine receptor (Homo sapiens) (UniProt P14416)
Sequence of UniProt P14416 (P14416 whole entry, looked up): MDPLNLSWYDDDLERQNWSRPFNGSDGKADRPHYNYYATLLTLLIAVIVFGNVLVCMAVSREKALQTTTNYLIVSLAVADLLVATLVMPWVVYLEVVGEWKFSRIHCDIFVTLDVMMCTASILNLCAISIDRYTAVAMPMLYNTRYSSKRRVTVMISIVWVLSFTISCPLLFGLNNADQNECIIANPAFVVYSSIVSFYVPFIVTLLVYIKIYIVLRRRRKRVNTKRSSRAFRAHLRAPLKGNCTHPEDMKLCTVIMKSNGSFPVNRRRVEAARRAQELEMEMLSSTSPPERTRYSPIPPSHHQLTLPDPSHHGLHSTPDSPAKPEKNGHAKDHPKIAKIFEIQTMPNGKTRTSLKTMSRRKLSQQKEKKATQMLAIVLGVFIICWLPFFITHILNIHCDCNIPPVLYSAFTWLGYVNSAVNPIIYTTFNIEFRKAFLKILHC
Experiment: HTS Assay for Allosteric Antagonists of the Human D2 Dopamine Receptor: Primary Screen for Antagonists; also: 0% is about no effect
Details: HEK293 TREx D2 cells, calcium flux, dopamine EC80; at 10 µM; stronger effect = higher value
Method in brief: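 Compounds are added to dye-loaded, induced HEK293 T-REx cells coupled to calcium release via D2; after a 3 min kinetic read an EC80 dopamine stimulus is given and fluorescence is recorded for 3 more min.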

In order of falling inhibition:
1. COc1ccc(-c2ccc3c(N)c(C(=O)c4ccc(OC)c(OC)c4)sc3n2)cc1  20.7%
2. COc1ccc(CNC(=O)CSCc2nc(-c3ccccc3C)oc2C)cc1  16.8%
3. Cc1ccc(N2CCN(C(=O)c3nn(C)c4c3CS(=O)(=O)c3ccccc3-4)CC2)c(C)c1  16.5%
4. COc1cccc(NC(=O)Cn2nnc(C(=O)NCc3cccs3)c2N)c1  14.8%
5. COc1cc(SC)ccc1C(=O)Nc1ccc(S(=O)(=O)Nc2nccc(C)n2)cc1  14.4%
6. CCOC(=O)c1sc2cccc(F)c2c1S(=O)(=O)NCc1ccccc1Cl  13%
7. COc1ccc(CNC(=O)c2ccc(-c3nc(CSc4ccccc4)c(C)o3)cc2)cc1OC  12.4%
8. O=C(CCn1c(=O)c2sccc2n(Cc2ccccc2F)c1=O)NCc1ccc2c(c1)OCO2  12.3%
9. CC(C)c1nn2c(=O)cc(COC(=O)c3cccc(NC(=O)COc4ccc(F)cc4)c3)nc2s1  11.8%
10. Cc1ccccc1CNC(=O)c1ccc2c(c1)c(C)c(C)n2C  11.7%
11. CCCCC(=O)Nc1ccc2nc(SCC(=O)N3CCc4ccccc43)sc2c1  11.2%
12. COc1ccc(C2C(C(=O)Nc3ccccc3)=C(C)Nc3c(C(=O)Nc4ccccc4)cnn32)cc1 (centres undefined)  11.1%
13. CCOc1ccc(-c2nc3c(c(SCC(=O)Nc4ccccc4C)n2)Cc2ccccc2O3)cc1  11%
14. COC(=O)c1ccccc1NC(=O)c1cc(-c2ccccc2O)no1  10.4%
15. O=C(NCCc1ccccc1)c1ccc(CS(=O)Cc2ccc(Cl)cc2)o1 (centres undefined)  10.3%
16. Cc1ccc(C(c2sc3nc(-c4ccco4)nn3c2O)N2CCCC2)cc1 (centres undefined)  10.3%
17. O=S(=O)(c1ccc(-c2cc(C(F)(F)F)on2)s1)N1CCN(c2ccccc2F)CC1  9.91%
18. CCc1cccc(NC(=O)COC(=O)c2cn(CC)c3nc(C)ccc3c2=O)c1  9.55%
19. COc1ccc(NC(=O)Cn2c(=O)n(-c3cc(C)cc(C)c3)c(=O)c3oc4ccccc4c32)cc1OC  9.51%
20. CCOc1ccccc1NC(=O)c1c(NC(=O)COc2ccc(Cl)cc2)sc2c1CCCCC2  8.91%
21. Cc1cccc(N(C)c2nc3ccccc3c3nnc(C)n23)c1  8.45%
22. O=C(Nc1ccc(F)cc1F)C1CCN(c2ncccn2)CC1  8.08%
23. CCOc1ccc(CNC(=O)c2cccc(NC(=O)N3CCSc4ncccc43)c2)cc1OC  8.02%
24. Cc1ccc(Cl)cc1NC(=O)C1CCN(c2nnc(C)c3c(C)n(-c4ccccc4)nc23)CC1  7.87%
25. Cc1cc(C)c(Cn2c3ccccc3c3cnn(CC(=O)NCc4cccs4)c(=O)c32)c(C)c1  7.63%
26. O=C(CS(=O)(=O)c1cccc2nsnc12)N1CCN(c2cccc(Cl)c2)CC1  7.37%
27. Cc1ccc(C)c(CSc2nnc3[nH]c(=O)cc(C)n23)c1  7.07%
28. Cc1nc(N2CCCC2)c2c(C(=O)N3CCN(c4ccccc4)CC3)c(C)oc2n1  6.89%
29. CCOC(=O)c1ccc(NC(=O)Cn2nc3c4ccccc4n(Cc4cccc(F)c4)cc-3c2=O)cc1  6.59%
30. COc1ccc(-n2nc(C(=O)Nc3ccccn3)c3c4ccccc4n(C)c3c2=O)cc1  6.18%
31. Cc1ccc(C)c(N2CCN(C(=O)c3cn(CC(C)C)c(=O)c4c3c3ccccc3n4C)CC2)c1  6.11%
32. Cc1ccccc1N1CCN(S(=O)(=O)c2nnc(NC(=O)c3ccc(C(C)C)cc3)s2)CC1  6.02%
33. Cc1cccc(NC(=O)Cn2nnc(-c3nc(-c4ccncc4)no3)c2N)c1  6%
34. CCc1ccc(C(=O)c2cn(CC(=O)Nc3ccc(Cl)cc3)c3cc4c(cc3c2=O)OCO4)cc1  5.94%
35. O=S(=O)(c1ccc(C2CCCCC2)cc1)N1CCN(c2ccc(Cl)c(Cl)c2)CC1  5.78%
36. CC(C)c1nn2c(=O)cc(COC(=O)c3ccc(NC(=O)COc4ccccc4)cc3)nc2s1  5.61%
37. Cc1ccc2c(CNCCc3ccccc3)c(C(=O)O)n(Cc3ccccc3C)c2c1  5.45%
38. COc1ccc(CN2CCc3c(c(=O)n4ncc(C(=O)N5CCN(c6ccccc6OC)CC5)c4n3C)C2)cc1  5.26%
39. Cc1ccc(C(=O)c2cn(CC(=O)Nc3ccc(C(C)C)cc3)c3nc(C)ccc3c2=O)cc1  5.04%
40. COc1ccc(C(=O)c2c(N)c(-c3nc(-c4ccc5c(c4)OCO5)cs3)c3ccccn23)cc1  4.24%
41. CCc1ccc2nc(N(Cc3cccnc3)C(=O)c3ccc(C#N)cc3)sc2c1  4.15%
42. CCOc1ccc(-n2cc(-c3ccccc3)c3c(NCCc4ccccc4)ncnc32)cc1  4.1%
43. CC(=O)N1CCCc2cc(S(=O)(=O)N3CCCC(C(=O)N4CCN(c5cccc(Cl)c5)CC4)C3)ccc21 (centres undefined)  4%
44. CN(C)c1ccc(CNC(=O)c2ccc(Cn3c(SCc4ccccc4)nc4cccnc43)cc2)cc1  3.23%
45. Cc1ccc(Nc2ccc3cc(S(=O)(=O)N4CCC(C)CC4)ccc3n2)c(Cl)c1  2.93%
46. COc1ccc(NC(=O)CN2C(=O)CCn3nc(-c4cccn4C)cc32)cc1Cl  2.56%
47. Cc1ccccc1NC(=O)Cn1cc(C(=O)c2ccco2)c2ccccc21  2.35%
48. COc1ccc(-c2cc(-c3ccccc3)c(C#N)c(SCC(O)CS(=O)(=O)Cc3ccc(Cl)cc3)n2)cc1 (centres undefined)  2.32%
49. Cc1cccc(NC(=O)Cn2nc(-c3ccccc3)c3cnc4ccccc4c32)c1  2.13%
50. CCc1cccc(NC(=O)CCn2c(=O)c3cccn3c3cccnc32)c1  1.77%
51. Cc1cc(C)cc(NC(=O)Cn2c(-c3cncs3)nc3ccccc32)c1  1.56%
52. Cc1cc(C)n(-c2nc3ccccc3nc2Nc2ccc(N(C)C)cc2)n1  0.194%
53. CCCCCn1c(NCc2ccc(OC)cc2)nc2ccccc21  -0.0366%
54. CCC(Cn1nnc2ccccc2c1=O)NC(=O)Nc1cc(C)cc(C)c1 (centres undefined)  -0.293%
55. CCCN1CCN(c2ncnc3sc(C(=O)Nc4ccc(C(C)C)cc4)c(C)c23)CC1  -0.468%
56. Cc1ccc(N(CC(=O)NCCc2ccc(Cl)cc2)S(=O)(=O)c2c(C)noc2C)cc1  -2.29%
57. Cc1ccc(C)c(CSc2nc(-c3ccccc3F)nc3c2Cc2c(CO)cnc(C)c2O3)c1  -3.52%
58. O=C(NCCc1ccccc1)c1nn(-c2ccccc2F)nc1CO  -5.19%
59. COC(=O)Cn1c(=O)c2cccn2c2ccc(F)cc21  -5.2%
60. Cc1cc2c(n1-c1ccc(C(=O)NCCc3ccc(Cl)cc3)cc1)CCCC2  -5.75%
61. COc1ccc(C)cc1NC(=O)c1noc2c1CSc1ccccc1-2  -5.89%
62. Cc1ccc(NC(=O)CN2C(=O)c3ccccc3Sc3ccc(C(=O)N4CCOCC4)cc32)cc1F  -6.3%
63. COc1cc(NC(=O)c2cc(C3CC3)nc3c2c(C)nn3-c2ccccc2)cc(OC)c1  -6.59%
64. CCOc1cc2sc(N3CCC(C(=O)Nc4ccc(CC)cc4)CC3)nc2cc1Br  -6.83%
65. CCc1ccc(CNC(=O)c2cnc3sc(N4CCCC4)nn3c2=O)cc1  -7.36%
66. CC(=O)Nc1ccc(NC(=O)c2oc3c(c2C)-c2nn(Cc4ccccc4Cl)cc2CC3)cc1  -8.09%
67. Cc1ccccc1NC(=O)CC(NCc1cccnc1)C(=O)O (centres undefined)  -8.36%
68. COc1cccc(N2CCN(C(=O)c3ccc(C)c(NC(=O)c4nsc5ccccc45)c3)CC2)c1  -8.37%
69. Cc1ccccc1Cn1nnc2c(=O)[nH]c(C3CCN(C(=O)c4ccc(F)cc4)CC3)nc21  -9.38%
70. COc1ccccc1OC(C)C(=O)Nc1cccc(-c2nc3ccccc3s2)c1 (centres undefined)  -9.44%
71. CCOC(=O)c1ccc(NC(=O)c2cnc3c(-c4ccc(F)cc4)c(C)nn3c2C)cc1  -9.65%
72. CCOC(=O)N1CCc2c(sc3c2c(=O)n(Cc2ccccc2)c(=O)n3CC(=O)Nc2cccc(CC)c2)C1  -10.5%
73. CC(=O)Nc1nonc1-c1nnc(SCC(=O)Nc2ccc(C)cc2)n1-c1ccccc1  -11%
74. Cc1ccc(NC(=O)CSc2nnc(-c3ccc([N+](=O)[O-])cc3)o2)c(C)c1  -11.1%
75. CCc1ccc(C(=O)c2cn(CC(=O)Nc3ccc4c(c3)OCO4)c3ccc(CC)cc3c2=O)cc1  -11.2%
76. CS(=O)(=O)N1CCc2cc(C(=O)N3CCN(c4cccc(Cl)c4)CC3)ccc21  -12.2%
77. CCC(C)NC(=O)CCCN1C(=O)CCn2nc(-c3cccn3C)cc21 (centres undefined)  -12.5%
78. COc1ccc(Br)cc1C1C(C(=O)Nc2ccc(C)cc2C)=C(C)Nc2ncnn21 (centres undefined)  -12.6%
79. Cc1cc(NC(=O)CCc2nc3cccnc3n2-c2ccccc2)ccc1Br  -13.4%
80. CCc1ccc(-n2c(=O)c3c4c(sc3n(CC(=O)c3ccc(F)cc3)c2=O)CCC4)cc1  -15.8%
81. CC(C)C(=O)Nc1nnc2n1CCS2  -19.7%
82. Cc1ccc(S(=O)(=O)n2nc(C)c(S(=O)(=O)N3CCCCCC3)c2C)cc1  -21.9%

`CCCN1CN(Cc2ccco2)c2nc3ccccc3n2C1` was tested, and the inhibition was active: 42.7%.
In the case of `COc1c(O)cc2oc(-c3ccc(O)c(O)c3)cc(=O)c2c1O`, the inhibition is reported as active: 36.2%.
`Cc1cc(C(=O)Nc2ccc([N+](=O)[O-])cn2)cs1` was tested, and the inhibition was active: 30.5%.
For `O=C(NCCCN1CCN(c2ccccc2F)CC1)C1CCC(=O)N1C1CCCC1` (centres undefined), the inhibition was active: 66.4%.
In the case of `CSc1ccc(C#N)cc1NC(=O)c1ccccc1C`, the inhibition is reported as active: 50.9%.
For `CCCc1cc(=O)[nH]c(SCC(=O)N2CCN(c3ccccc3)CC2)n1`, the inhibition was 9.36% and active: 38.3%.
In the case of `COc1ccccc1N1CCN(C2CCCN(C(=O)c3ccoc3C)C2)CC1` (centres undefined), the inhibition is reported as active: 30.6%.
With `Cc1cccc(CCNC(=O)C2CCN(S(=O)(=O)c3c(C)nn(C)c3C)CC2)c1` the inhibition was active: 32.3%.
`O=C(NC1CCCC1)c1cc(-c2ccc(Cl)cc2Cl)on1` was tested, and the inhibition was active: 30.8%.
With `O=C(COC(=O)C1=NN(c2ccccc2)C(=O)CC1)NCc1ccccc1Cl` the inhibition was active: 31.5%.
With `COCc1ccc(CN2CCC(C(=O)Nc3cccc(-c4cscn4)c3)CC2)o1` the inhibition was active: 31.9%.
For `CCCSC1=C(C#N)C(c2ccc(OC)cc2)C2=C(CC(C)(C)CC2=O)N1` (centres undefined), the inhibition was active: 41.7%.
